Publication PMC6703689
Results are given in words; binding and its absence hold for the method and conditions named. In cells and extracts the contact can be indirect. Some binding calls cover weakened binding; strength is not graded here. Tags and fused reporters may be left off the sequences shown.

Sequences of proteins named here, by UniProt entry; tags and fusion partners are left off.
UniProt Q7Z434: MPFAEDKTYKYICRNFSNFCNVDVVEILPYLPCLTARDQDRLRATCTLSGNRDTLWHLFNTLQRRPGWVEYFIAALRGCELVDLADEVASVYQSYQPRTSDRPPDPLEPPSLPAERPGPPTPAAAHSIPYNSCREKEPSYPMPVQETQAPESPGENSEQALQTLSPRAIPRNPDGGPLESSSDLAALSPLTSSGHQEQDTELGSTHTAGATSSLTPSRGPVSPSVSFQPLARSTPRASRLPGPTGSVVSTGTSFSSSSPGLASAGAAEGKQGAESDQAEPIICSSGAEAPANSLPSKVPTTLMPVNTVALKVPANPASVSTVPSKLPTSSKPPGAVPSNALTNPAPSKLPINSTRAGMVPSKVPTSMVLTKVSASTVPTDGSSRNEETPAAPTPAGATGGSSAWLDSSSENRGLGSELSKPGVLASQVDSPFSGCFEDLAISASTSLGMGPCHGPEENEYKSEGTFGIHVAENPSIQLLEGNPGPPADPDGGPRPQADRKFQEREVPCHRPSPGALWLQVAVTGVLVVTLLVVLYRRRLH
UniProt Q86WV6: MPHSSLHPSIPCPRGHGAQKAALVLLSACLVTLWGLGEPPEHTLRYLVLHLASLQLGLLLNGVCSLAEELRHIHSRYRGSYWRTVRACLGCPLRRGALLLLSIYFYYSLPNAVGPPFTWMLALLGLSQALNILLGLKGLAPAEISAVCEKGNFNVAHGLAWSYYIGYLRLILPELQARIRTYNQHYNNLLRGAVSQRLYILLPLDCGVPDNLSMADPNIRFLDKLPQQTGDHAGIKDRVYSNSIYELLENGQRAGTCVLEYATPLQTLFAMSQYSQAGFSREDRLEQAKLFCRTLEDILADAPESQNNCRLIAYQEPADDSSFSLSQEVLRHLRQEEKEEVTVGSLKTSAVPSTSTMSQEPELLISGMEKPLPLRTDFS

Tests used:
Test in all cases: co-IP; HEK293 cells transiently transfected with the indicated plasmids; NP-40 lysis buffer (20 mM Tris-HCl pH 7.4, 150 mM NaCl, 1 mM EDTA, 1% NP-40); immunoprecipitation and immunoblotting
[1] = target: T1, retinoic acid-inducible gene-I (RIG-I), transfected (human) (UniProt O95786)
T1 sequence: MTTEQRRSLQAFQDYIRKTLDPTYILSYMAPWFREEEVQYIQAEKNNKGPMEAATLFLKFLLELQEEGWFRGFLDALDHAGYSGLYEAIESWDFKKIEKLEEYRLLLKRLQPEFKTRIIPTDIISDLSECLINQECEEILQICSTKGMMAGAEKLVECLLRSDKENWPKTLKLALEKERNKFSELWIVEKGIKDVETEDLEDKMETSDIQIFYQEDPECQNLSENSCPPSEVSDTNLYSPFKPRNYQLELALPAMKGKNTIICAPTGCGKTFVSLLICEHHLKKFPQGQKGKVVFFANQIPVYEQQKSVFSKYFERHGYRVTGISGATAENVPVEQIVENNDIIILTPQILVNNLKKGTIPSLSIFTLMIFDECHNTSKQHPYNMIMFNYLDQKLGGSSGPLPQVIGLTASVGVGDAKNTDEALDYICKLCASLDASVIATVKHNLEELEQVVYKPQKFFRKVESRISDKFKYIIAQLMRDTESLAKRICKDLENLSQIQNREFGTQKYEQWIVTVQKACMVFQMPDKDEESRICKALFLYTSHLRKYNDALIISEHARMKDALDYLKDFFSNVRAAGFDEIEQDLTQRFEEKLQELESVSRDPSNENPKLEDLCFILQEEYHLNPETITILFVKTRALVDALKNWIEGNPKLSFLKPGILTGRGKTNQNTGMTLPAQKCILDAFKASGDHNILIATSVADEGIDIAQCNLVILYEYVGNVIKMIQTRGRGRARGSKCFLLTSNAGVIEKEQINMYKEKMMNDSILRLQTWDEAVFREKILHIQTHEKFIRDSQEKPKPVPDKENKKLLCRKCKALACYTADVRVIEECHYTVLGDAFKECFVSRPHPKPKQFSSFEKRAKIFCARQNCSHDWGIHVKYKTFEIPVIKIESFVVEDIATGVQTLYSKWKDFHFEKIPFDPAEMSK

[2] = target: T2, MDA5, transfected (human) (UniProt Q9BYX4)
T2 sequence: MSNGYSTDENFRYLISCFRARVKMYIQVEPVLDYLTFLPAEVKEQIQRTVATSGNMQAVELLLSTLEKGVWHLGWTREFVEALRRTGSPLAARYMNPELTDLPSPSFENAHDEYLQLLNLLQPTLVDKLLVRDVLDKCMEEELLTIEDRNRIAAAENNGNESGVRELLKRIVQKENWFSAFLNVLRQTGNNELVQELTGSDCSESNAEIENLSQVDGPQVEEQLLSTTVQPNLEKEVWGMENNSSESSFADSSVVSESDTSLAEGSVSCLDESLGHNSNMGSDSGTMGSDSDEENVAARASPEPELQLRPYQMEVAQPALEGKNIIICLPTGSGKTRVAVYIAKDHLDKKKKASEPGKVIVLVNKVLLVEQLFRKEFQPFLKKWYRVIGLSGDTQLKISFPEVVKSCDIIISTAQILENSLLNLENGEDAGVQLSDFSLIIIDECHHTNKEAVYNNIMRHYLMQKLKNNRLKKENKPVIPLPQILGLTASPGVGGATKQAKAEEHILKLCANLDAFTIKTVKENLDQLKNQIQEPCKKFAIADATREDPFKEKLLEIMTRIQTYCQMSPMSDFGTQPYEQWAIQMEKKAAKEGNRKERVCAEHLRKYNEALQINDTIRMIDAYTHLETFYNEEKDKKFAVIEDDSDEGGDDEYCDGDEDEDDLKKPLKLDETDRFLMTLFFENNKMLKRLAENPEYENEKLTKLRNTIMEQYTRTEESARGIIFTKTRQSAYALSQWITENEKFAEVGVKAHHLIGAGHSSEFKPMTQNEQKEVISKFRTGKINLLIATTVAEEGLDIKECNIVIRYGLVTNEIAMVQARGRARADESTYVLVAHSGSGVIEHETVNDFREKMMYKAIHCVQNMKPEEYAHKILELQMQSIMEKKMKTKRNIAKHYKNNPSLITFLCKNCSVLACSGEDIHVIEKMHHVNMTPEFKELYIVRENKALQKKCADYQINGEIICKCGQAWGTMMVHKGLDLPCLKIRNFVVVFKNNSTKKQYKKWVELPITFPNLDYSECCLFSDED

VISA = VISA (UniProt Q7Z434)
IRF3 = target: T3, IRF3 (UniProt Q14653)
T3 sequence: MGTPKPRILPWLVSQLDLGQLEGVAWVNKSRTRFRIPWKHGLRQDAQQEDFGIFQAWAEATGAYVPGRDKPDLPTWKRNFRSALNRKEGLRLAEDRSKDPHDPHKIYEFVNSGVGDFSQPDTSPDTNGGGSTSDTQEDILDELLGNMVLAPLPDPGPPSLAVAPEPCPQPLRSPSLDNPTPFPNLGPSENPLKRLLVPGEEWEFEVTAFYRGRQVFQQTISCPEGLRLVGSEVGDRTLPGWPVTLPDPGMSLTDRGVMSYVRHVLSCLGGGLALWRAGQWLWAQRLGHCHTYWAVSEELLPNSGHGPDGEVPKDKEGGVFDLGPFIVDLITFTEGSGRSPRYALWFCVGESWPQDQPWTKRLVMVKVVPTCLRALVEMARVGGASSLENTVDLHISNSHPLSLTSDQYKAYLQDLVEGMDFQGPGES

MITA = MITA (UniProt Q86WV6)

B1: heterogeneous nuclear ribonucleoprotein M (hnRNPM), Flag- or HA-tagged, transfected (protein, UniProt P52272 1-730)
chain: MAAGVEAAAEVAATEIKMEEESGAPGVPSGNGAPGPKGEGERPAQNEKRKEKNIKRGGNRFEPYANPTKRYRAFITNIPFDVKWQSLKDLVKEKVGEVTYVELLMDAEGKSRGCAVVEFKMEESMKKAAEVLNKHSLSGRPLKVKEDPDGEHARRAMQKVMATTGGMGMGPGGPGMITIPPSILNNPNIPNEIIHALQAGRLGSTVFVANLDYKVGWKKLKEVFSMAGVVVRADILEDKDGKSRGIGTVTFEQSIEAVQAISMFNGQLLFDRPMHVKMDERALPKGDFFPPERPQQLPHGLGGIGMGLGPGGQPIDANHLNKGIGMGNIGPAGMGMEGIGFGINKMGGMEGPFGGGMENMGRFGSGMNMGRINEILSNALKRGEIIAKQGGGGGGGSVPGIERMGPGIDRLGGAGMERMGAGLGHGMDRVGSEIERMGLVMDRMGSVERMGSGIERMGPLGLDHMASSIERMGQTMERIGSGVERMGAGMGFGLERMAAPIDRVGQTIERMGSGVERMGPAIERMGLSMERMVPAGMGAGLERMGPVMDRMATGLERMGANNLERMGLERMGANSLERMGLERMGANSLERMGPAMGPALGAGIERMGLAMGGGGGASFDRAIEMERGNFGGSFAGSFGGAGGHAPGVARKACQIFVRNLPFDFTWKMLKDKFNECGHVLYADIKMENGKSKGCGVVKFESPEVAERACRMMNGMKLSGREIDVRIDRNA
binding [1]: binds
binding [2]: binds
binding (VISA): no binding
binding (IRF3): no binding
binding (MITA): no binding
